From PubChem BioAssay AID894 (National Center for Advancing Translational Sciences (NCATS), 2007)
Among all 150,000 compounds or so, about 6,500 (4.3%) were called active. Inconclusive results, whose numbers are uncertain, are shown with a selection of clear calls. Calls come from the whole dose curve; as a rule, active = well fitted inhibition curve with a large enough effect (not every such curve was filed as active); inconclusive = small, poorly fitted or top-dose-only effect, or another doubt; inactive = no such curve, though single readings can be large or run the other way. A potency beside an inconclusive call is a rough fit, not a confirmed value.

Molecular target: 15-hydroxyprostaglandin dehydrogenase [NAD(+)] (Homo sapiens) (UniProt P15428)
Assay: qHTS Assay for Inhibitors of HPGD (15-Hydroxyprostaglandin Dehydrogenase)
Details: purified HPGD, NADH fluorescence kinetic, PGE2 substrate; activity change, negative = inhibition: active compounds read low
Method in brief: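 NADH formation kinetics: reaction with 30 uM PGE2 and 1 mM NAD+ (final), 20 nM enzyme, Tris-HCl pH 8 with Tween 20, after 15 min compound preincubation at room temperature. Fluorescence change, last versus first of five reads.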
% is set by controls: 0 for no effect and ±100 for the full control effect; potency is the fitted concentration of half-maximal effect; tags give direction and shape of the fitted curve.

UniProt P15428, sequence (P15428 whole entry, looked up): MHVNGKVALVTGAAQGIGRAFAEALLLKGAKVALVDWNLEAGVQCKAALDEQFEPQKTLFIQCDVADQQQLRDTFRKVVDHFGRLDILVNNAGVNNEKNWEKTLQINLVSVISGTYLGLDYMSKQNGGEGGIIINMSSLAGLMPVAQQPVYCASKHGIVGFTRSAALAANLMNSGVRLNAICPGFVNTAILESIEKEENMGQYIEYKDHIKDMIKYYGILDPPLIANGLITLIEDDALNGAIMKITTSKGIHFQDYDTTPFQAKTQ

Potency, active:
CCCCCCSc1nnc2[nH]c(=O)cc(N)n12 11.2 µM
CCCCCCNC(=O)CC(c1ccccc1)c1cc(Br)ccc1O (stereo not given) 8.91 µM
Cn1c(C(=O)N2CCN(Cc3ccccc3)CC2)cc2c(=O)n(C)c3ccccc3c21 15.8 µM
Cc1nn(C)c(C(=O)NNC(=S)NCc2ccco2)c1Cl 35.5 µM
N#Cc1cc(C(=O)c2ccccc2O)cn(-c2nccs2)c1=O 31.6 µM
O=C(Nc1nnc(SCC(=O)N2CCOCC2)s1)c1ccccc1 31.6 µM

Potency, inconclusive:
Cc1ccsc1-c1nc(CSCC(=O)NCc2ccc3c(c2)OCO3)c(C)o1 28.2 µM [inhibitor, partial curve]
O=C(Nc1nccs1)c1ccc(Cl)s1 20 µM [inhibitor, single point]
CC1(C)Cc2nc(NCCCO)c(C#N)cc2CO1 28.2 µM [inhibitor, partial curve]
O=C(Nc1cccc(F)c1)c1ccc(CSc2ccccc2)o1 31.6 µM [inhibitor, partial curve, poor fit]
COc1cc(-c2nc3ccccc3s2)ccc1O 15.8 µM [inhibitor, partial curve]
Cc1nc2c(C(=O)NCc3cccs3)cnn2c(C)c1Cc1ccc(F)cc1 28.2 µM [inhibitor, partial curve]
O=C(Nc1ccccc1F)c1ccc2nc(N3C(=O)CCC3=O)sc2c1 25.1 µM [inhibitor, partial curve, poor fit]
Cc1sc2ncnc(SCC(=O)NC(=O)NCc3ccco3)c2c1C 28.2 µM [inhibitor, partial curve]
Cc1ccc(C(C(=O)NCC2CCCO2)N(Cc2ccccc2)C(=O)c2ccc(-c3ccccc3)[nH]2)o1 (stereo not given) 35.5 µM [inhibitor, single point]
Cc1[nH]c2ccccc2c1Cc1nnc(SCC(=O)NCc2ccco2)o1 15.8 µM [inhibitor, partial curve]
CNC(=O)c1cc2cc(OC)ccc2oc1=O 31.6 µM [inhibitor, partial curve]
Cc1cc(C)[n+](-c2ccc(C(C)C)cc2)c2[nH]c(=O)[nH]c(=O)c12 28.2 µM [inhibitor, partial curve]

Activity change, negative = inhibition, inactive:
CC/C(=N/NC(=O)c1ccccc1)c1ccc(OCCN2CCOCC2)cc1 -23.1%
CC(=O)Nc1nc(NC(=O)/C=C/c2ccccc2)n(-c2ccccc2)n1 -4.08%
